# Data taken from PubChem BioAssay AID1346428 (National Center for Advancing Translational Sciences (NCATS), 2018).
# About 1,200 (2.5%) of roughly 48,000 compounds were called active. About 2% were inconclusive and are not listed.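 How the source made its calls: active means activation of at least 60% and not above a set upper limit (about 1 call in 100 departs from these limits); inconclusive means activation of 40% to 60%, or above that upper limit; inactive means activation under 40%.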 Some of the results follow.
# Target: Probable G-protein coupled receptor 32 (Homo sapiens) (UniProt O75388)
# Experiment: qHTS for Agonists of Human Resolvin D1 Receptor DRV1; further: 0% is about no effect
# Conditions: CHO-K1 GPR32 beta-arrestin PathHunter luminescence, 90 min; at 76.9 µM; active compounds read high; zero percent set by DMSO-only wells
# Method in brief: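 Luminescent readout of beta-Gal complementation quantifies ligand-induced beta-arrestin association with GPR32 in CHO-K1 cells; 90 min compound incubation at 37 °C, detection 1 h at room temperature.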
# UniProt O75388, sequence (O75388 whole entry, looked up): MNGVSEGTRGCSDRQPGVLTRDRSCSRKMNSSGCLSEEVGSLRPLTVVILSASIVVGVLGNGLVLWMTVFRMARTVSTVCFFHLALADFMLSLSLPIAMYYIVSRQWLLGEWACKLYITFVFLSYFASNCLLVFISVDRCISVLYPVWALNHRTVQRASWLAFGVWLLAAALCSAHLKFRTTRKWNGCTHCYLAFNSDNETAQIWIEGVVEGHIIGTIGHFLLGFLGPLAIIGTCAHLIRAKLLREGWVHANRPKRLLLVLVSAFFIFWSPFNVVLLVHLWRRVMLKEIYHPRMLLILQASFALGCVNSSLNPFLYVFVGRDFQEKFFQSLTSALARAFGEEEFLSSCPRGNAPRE
row,SMILES,activation
1,CC(=O)c1ccc(NC(=O)C2CCN(c3nnc(C)c4c(C)n(-c5ccccc5)nc34)CC2)cc1,inactive: -6.59%
2,CCc1nn2c(=O)cc(COC(=O)Cc3ccccc3)nc2s1,inactive: -14.5%
3,O=C(Cc1ccccc1)Nc1sc2c(c1C(=O)Nc1cccc(Cl)c1)CCCCC2,inactive: 29%
4,COc1ccc(NCc2cccn2-c2nnc(N3CCCCCC3)s2)cc1,inactive: 14.4%
5,O=C(NCc1ccco1)c1ccc(Cn2c(SCc3ccccc3)nc3cccnc32)cc1,inactive: 8.02%
6,COc1cc(OC)c(NC(=O)CCS(=O)(=O)c2ccc3c(c2)oc(=O)n3C)cc1Cl,inactive: 8.16%
7,COc1ccc(NC(=O)CSC2=Nc3ccccc3C3=NC(CC(=O)NCCc4ccccc4)C(=O)N23)cc1 (configuration not stated),inactive: -16.9%
8,CC(C)CCOc1ccc(Cn2c(=O)oc3ccccc32)cc1,inactive: 29.6%
9,Cc1ccc(S(=O)(=O)c2cn(Cc3ccccc3)c3cc(N4CCCCC4)c(F)cc3c2=O)cc1,inactive: -5.3%
10,COc1ccc(-c2noc(-c3ccc(N4CCOCC4)c([N+](=O)[O-])c3)n2)cc1,inactive: -10.2%
11,CCc1ccc(CNC(=O)C2COc3ccc(OC)cc3C2)cc1 (configuration not stated),inactive: 0.887%
12,CN(Cc1ccccc1)C(=O)CSc1nnc(-c2cccc(Cl)c2)o1,inactive: 16.4%
13,CCOC(=O)c1c(C)sc(-c2c(-c3ccccc3)[nH]c3[nH]c(=O)[nH]c(=O)c23)c1O,inactive: -11.5%
14,CC1=C(C(=O)Nc2ccccc2C)C(c2cccs2)n2nc(SCc3ccccc3)nc2N1 (configuration not stated),inactive: -8.71%
15,CCc1ccc(S(=O)(=O)NCc2ccc3c(c2)CCN3C(=O)c2ccc(C)cc2)cc1,inactive: -31.1%
16,CCc1ccc(-n2nc(CO)c(C(=O)NCCOC)n2)cc1,inactive: 8.72%
17,O=C(Cn1ncc2c(Cl)cccc21)NCc1cccc(Cl)c1,inactive: -9.26%
18,COc1ccc(OC)c(S(=O)(=O)N2CCC(n3c(C)nc4cccnc43)CC2)c1,active: 64.7%
19,CN(C(=O)CC(=O)Nc1ccc2nc3n(c(=O)c2c1)CCCCC3)c1ccccc1F,inactive: 0.997%
20,CCc1ccc(-n2nc(C)c3c(C(=O)N4CCN(c5ccccc5)CC4)cc(C)nc32)cc1,inactive: -7.97%
21,CCC(=O)O[C@]1(C(=O)CCl)[C@@H](C)C[C@H]2[C@@H]3CCC4=CC(=O)C=C[C@]4(C)[C@@]3(F)[C@@H](O)C[C@@]21C,inactive: -9.23%
22,COc1ccc(-c2noc(-c3ccc(N4CCCC4)c([N+](=O)[O-])c3)n2)cc1OC,inactive: 10.5%
